Measurements from PMC12136788.
The list shows a part of the results.

T1: UNK ZnF1-3 (human, UniProt Q9C0B0 31-174)
T1 sequence: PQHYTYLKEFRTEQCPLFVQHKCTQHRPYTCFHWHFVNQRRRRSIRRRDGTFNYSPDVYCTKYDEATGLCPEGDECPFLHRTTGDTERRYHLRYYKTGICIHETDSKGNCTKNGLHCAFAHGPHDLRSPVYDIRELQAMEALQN

B1: 19412715_19413243_14704_CDS_ENSG00000127481_ENST00000375254|human|control|control (ssRNA)
RNA: GGGAGUUCUACAGUCCGACGAUCGGCAUUCUGCAGGGCGGCACUCUCCCACUCUUCCCGGCCUCGAGCCAACCUGACGGCAGCCAGAUGGCAGUCGUAGUGCACAAUGUUGAAGUGGGACACGGUGCUGUAGCCCUGCUGUUUCAACAGAGGAUUGAGCAUCA
B2: chr10:1038518:1038519:+_ENSG00000107937_ENST00000545048|hu_hu|hu_hu_hu_mus_False|58_58 (ssRNA)
RNA: GGGAGUUCUACAGUCCGACGAUCCAGUCUGUCAUGGUAAUUCUGUUGAGUAAAUUUGACUUUUCUCAUAUAAAAAUGUCUAAUGCGAUGAAUUUGAUAAUGUUUAUGAAUAACCGUUGGAGUCUUUCGUUGAGUCUUGGAUAACAACAGAGGAUUGAGCAUCA
B3: chr7:80921385:80921386:+_ENSMUSG00000078670_ENSMUST00000107456|mus_mus|FALSE|FALSE (ssRNA)
RNA: GGGAGUUCUACAGUCCGACGAUCUAGGGCUGAAAGAACCAGUGUCAAGUCAGGCUCCUGAGCCAGGGUGGAUCUUCCCACCUACCGCCAUCACCACAACCCCAGUCAGAACUGGAGAACCUGACAGUGGUGGAGCUGGCCAAGCAACAGAGGAUUGAGCAUCA
B4: chr4:136884974:136884975:-_ENSMUSG00000006699_ENSMUST00000030417|mus_hu|motif|central (ssRNA)
RNA: GGGAGUUCUACAGUCCGACGAUCCACCCACUUUUCUUUCACGUUUUCAAAUGAAGAUGGAGAGACCACUGAAAAACAGACGGGAAAUACAUCUGUUUGUGGAUAACUCAGCGGUCGUAAUCUGUCAUAAUCCUCUUGCCCUGCCAACAGAGGAUUGAGCAUCA
B5: chr3:100103413:100103414:-_ENSG00000154174_ENST00000284320|hu_mus|FALSE|FALSE (ssRNA)
RNA: GGGAGUUCUACAGUCCGACGAUCAAGAAGUUUAAGAACUUUAUCAGCUAACAGCAUGCUCUGCUCAUUUUGAAACCCUUCUAAUAUACACACAGCAGUGACGUCUUCUAAACACUCCUUCUUAUUGUCUAGCUUCUCAUGGGCCAACAGAGGAUUGAGCAUCA
B6: chr4:17845017:17845018:+_ENSG00000109805_ENST00000514176|hu_mus|hu_hu_hu_mus_False|18_98 (ssRNA)
RNA: GGGAGUUCUACAGUCCGACGAUCGCUCUCUUAACUUGAUCUUCAUUUAAGGAACUCUGCAAGGUUAAGUUUACUUUUCUGUAGCGCAGCUGUUUUGGCUCGUCUGGGUAAUCUCAUUUCAUUUCUGGAUGGUGGUUCAUGAUCCAACAGAGGAUUGAGCAUCA
B7: 39178702_39179248_2937_CDS_ENSMUSG00000037475_ENSMUST00000047037|mouse|control|control (ssRNA)
RNA: GGGAGUUCUACAGUCCGACGAUCUGAAAAAAUGCAUCGAGGAAAUAUACACAGCUGUAAAAAUUUUGUGAUGGUCUCAUUUUUGGUAGACUUUGCUAAAAGCCAGUUGUCCUUUUCUAGUUUCAGUCUCUGAAGUACUCUUUGCAACAGAGGAUUGAGCAUCA
B8: chr2:162251599:162251600:+_ENSG00000115233_ENST00000409682|hu_hu|FALSE|FALSE (ssRNA)
RNA: GGGAGUUCUACAGUCCGACGAUCACAAUGUUCACUGUAGUCCUGAAGUGUCAAACCUUCCAUCCAACUCUUCUUAUGCAAAUUUAGCAACAUCUUCUGUUCCAGUUCAUUUUUCCGAUAGUUAAUAGUAAUGGAGUAAUAAUGCAACAGAGGAUUGAGCAUCA
B9: chr7:56126341:56126342:+_ENSG00000146731_ENST00000540286|hu_mus|hu_hu_hu_mus_True|38_108 (ssRNA)
RNA: GGGAGUUCUACAGUCCGACGAUCCAUAUUUCUCCUUUUGGCUCUGCGCAGAGCUACGAUCCCUUCUUUCGCAAGGGCAUCUAAGGAAAAGGGGUCAAUUCCCUUUUGAUUAAUAACGACAAAUCCUUUAUCUGAGUCACCACACAACAGAGGAUUGAGCAUCA
B10: 98693666_98693786_2379_CDS_ENSMUSG00000048154_ENSMUST00000023741|mouse|control|control (ssRNA)
RNA: GGGAGUUCUACAGUCCGACGAUCCAGCGGCAGCUCCUCAGGCUGGGGACAGAGUCGGGGCUCCUCAGGCUGAGGAGACAAGUAUGGUUCCUCGGGCUGAGGGCAGAGUCUCAGCUCCUCAGGCAGUGGCGACAGCGGUGACUCCAACAGAGGAUUGAGCAUCA
B11: chr7:65705844:65705845:+_ENSG00000169902_ENST00000304842|hu_mus|hu_hu_hu_mus_False|28_28 (ssRNA)
RNA: GGGAGUUCUACAGUCCGACGAUCAAACGGAUCUUUGUUACAUAAAUAAGGUGCCGGCUCCCCAUGUUUAACAAUGACCUCCAGAAGGAAGGCUUGCAUGGCAGAAUCCAGCACUUCAUCUGUGACACCCGCCUCAUCCAAGCGCAACAGAGGAUUGAGCAUCA
B12: chr19:12856456:12856457:+_ENSG00000198356_ENST00000357332|hu_hu|FALSE|FALSE (ssRNA)
RNA: GGGAGUUCUACAGUCCGACGAUCCACGAUGGUGGGGAAGUUGAGCAGCCUCAGGGUGUGGCCCGUGGGUGCCGUGUCAAAUACCACCACCGAGAAGUUCAUGCCCUUCACCAGCCUCAUGACCUCGGCAUAGCUCAUGGCCUCCAACAGAGGAUUGAGCAUCA
B13: chr7:143002065:143002066:+_ENSG00000106144_ENST00000310447|hu_mus|FALSE|FALSE (ssRNA)
RNA: GGGAGUUCUACAGUCCGACGAUCCAGAGUACUACAGUACUCAGACAUCUCCUUGCAUCGGUGGAAUUCUGUGCCAGGGGCAUAGCCUUCACGCUCCUUGAUAAGGGCAUUCACCUUAACAAGCAUGUCGGCCACGUGCAUGUCCAACAGAGGAUUGAGCAUCA
B14: chr7:151048522:151048523:+_ENSG00000013374_ENST00000566856|hu_mus|hu_hu_hu_mus_True|68_108 (ssRNA)
RNA: GGGAGUUCUACAGUCCGACGAUCCUGCUUCUUAUUUAUUACGAUCUUGAUGUAAUUUUCUUGAAAUCCAAAGGUUUCAGCUAUUUGACACCUCAGGUCUCUACCAGUGACAUGCAAGCGGGUCUCCAACAAGCUUUUCUUAUCCAACAGAGGAUUGAGCAUCA
B15: chr5:151042278:151042279:-_ENSG00000113140_ENST00000231061|hu_hu|FALSE|FALSE (ssRNA)
RNA: GGGAGUUCUACAGUCCGACGAUCAUGACAAUCAUCCAAAUGUGAGGAAAGAACAACCGAUUCACCAACUCCACUUUUUCUAUUUUACAACUUUCUACAUCUCACUCUUGAUUUUGGCCUUCCUGGCUGAAACAGCCUGGCAGUCAACAGAGGAUUGAGCAUCA
B16: chr9:64576133:64576134:-_ENSMUSG00000004771_ENSMUST00000172298|mus_hu|motif|central (ssRNA)
RNA: GGGAGUUCUACAGUCCGACGAUCUGUCCCAUAUCUGUGCCUUUAUUGUUUUUCCAUCAACCUGGAUGCUUCUUGUUGCAAACUCGGCUCCAAUGGUGCUCUUGCUUUCCAGAUUAAACUCAUUUCGAGUAAAUCGAGACAGGACAACAGAGGAUUGAGCAUCA
B17: 155504106_155530241_1416_CDS_ENSG00000184863_ENST00000401878|human|control|control (ssRNA)
RNA: GGGAGUUCUACAGUCCGACGAUCUGGAAAUUCUGGAGGGCCUGGGAAUCUCUGGGGUCCCACGGCAGGUCUCGGCUGGCUCGGAACUGGUAGCAAGGGCACUUGAACAGGCGUGACCACCGUCCCUUUGAAGUGCGGGUUGAUCAACAGAGGAUUGAGCAUCA
B18: 4354425_4416706_570_5pUTR_ENSMUSG00000020647_ENSMUST00000085814|mouse|control|control (ssRNA)
RNA: GGGAGUUCUACAGUCCGACGAUCGCUUCUGGGGGAGUAAUGCAGUGUGUCCAGAGAUGGCGCUCGUCGGUUUGCUCUCACCUCAUUUAAGGUCAAUUACACGGACAACUUUGAAUAAGUAGAAAGUCUGAAUGUUGGUGUCUUCAACAGAGGAUUGAGCAUCA
B19: chr4:184628046:184628047:+_ENSG00000168538_ENST00000334690|hu_hu|motif|central (ssRNA)
RNA: GGGAGUUCUACAGUCCGACGAUCGAGACCUGAGAACAUGAAGGCAUCACUGGGCUCCACAGAAAUUUCUACAUCUUGAACGGAGUCGGUCUUAUUCUGUAGGUGAUACUUGACAGGUAACGACUCUCUGACACGCCCAAAUGACAACAGAGGAUUGAGCAUCA
B20: chr17:40142368:40142369:-_ENSG00000168259_ENST00000588814|hu_hu|motif|central (ssRNA)
RNA: GGGAGUUCUACAGUCCGACGAUCAUUCGUAGAAUGUCACUAGCCACAGACUGUGCUUCUGGAUAACGACCCAGCAUUGCGGAACAUUCUGCCUUGAGGAUUUUGAAGCGAUGGCAGGCAGGGGCAAAUUCUAGGGCACGGUCCCAACAGAGGAUUGAGCAUCA
B21: chr19:16212804:16212805:+_ENSG00000167460_ENST00000300933|hu_mus|hu_hu_hu_mus_False|28_78 (ssRNA)
RNA: GGGAGUUCUACAGUCCGACGAUCAACAAUUCUGGAGUGAAGGAAAGAUGUAACAUGCAAUUAAUUAAAAGCUCAGUCAGAAGGCACAUGGGCAACAAUGAUCACCCCCCAAGCAUUGCUUGGAAUGCUUAAAGACAAUCUGUUCAACAGAGGAUUGAGCAUCA
B22: chr1:25551555:25551556:-_ENSG00000117614_ENST00000236273|hu_hu|motif|central (ssRNA)
RNA: GGGAGUUCUACAGUCCGACGAUCUAUGACCAUCCUGUCAAUUUCCUCUGUGGAAGGCACAUGUGUUCCAUGAAGAAGACGGUUGGAUGUUGGGAAAAACUCUUCUCCAUGUUUUUCUCUCAGUCUCUCAUAUGUUUCCAUGUCCAACAGAGGAUUGAGCAUCA

These binders were tested against T1, UNK ZnF1-3 (assay: nsRBNS (natural sequence RNA bind-n-seq); RBNS binding buffer (assumed for nsRBNS): 25 mM Tris pH 7.5, 150 mM KCl, 3 mM MgCl2, 0.01% Triton X-100, 500 ug/ml BSA, 20 U/ml SUPERase-In, 4 C; UNK is unkempt and MSI1 is Musashi-1; names of the RNAs are library labels; protein concentration not given here; high values mean tight binding).
Work on B1 yielded a binding signal of 0.268 enrichment R. In the case of B2, the binding signal is reported as 0.7 enrichment R. For B3, the binding signal was 0.603 enrichment R. Binder B4 has a binding signal of 1.01 enrichment R. B5 gave a binding signal of 0.919 enrichment R. For B6, the binding signal was 0.465 enrichment R. In the case of B7, the binding signal is reported as 0.951 enrichment R. B8 showed a binding signal of 1.06 enrichment R. Work on B9 yielded a binding signal of 0.881 enrichment R. B10 showed a binding signal of 0.92 enrichment R. B11 was tested, and the binding signal was 0.278 enrichment R. With B12 the binding signal was 0.844 enrichment R. B13 gave a binding signal of 0.434 enrichment R. B14 was tested, and the binding signal was 0.754 enrichment R. Binder B15 has a binding signal of 1.12 enrichment R. B16 gave a binding signal of 0.836 enrichment R. B17 showed a binding signal of 0.927 enrichment R. With B18 the binding signal was 0.834 enrichment R. In the case of B19, the binding signal is reported as 1.27 enrichment R. Binder B20 has a binding signal of 1.23 enrichment R. Binder B21 has a binding signal of 1.51 enrichment R. B22 showed a binding signal of 0.577 enrichment R.
